In PMC12040169 (PLOS Biology, 2025):
The other results are listed elsewhere or left out.

Each molecule was assayed on T1, C. trachomatis L2/434/Bu expressing GFP (CTL2-GFP). Details: total inclusion area; 28.5 h, 10 µM; inhibitor.
T1 construct: L2/434/Bu GFP intracellular growth in HeLa cells
Parameters: species or system HeLa; C. trachomatis total inclusion area by high-content imaging, normalised to DMSO
In short: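 High-content imaging followed the bulk GFP/resorufin measurement: fixed, Hoechst-stained cells were scored for GFP inclusions and host nuclei per well. Total inclusion area and count served as growth proxies, nuclei number as the viability proxy. MIC calculation matched the bulk assay.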

In order of rising “% of control remaining” value:
1. CCCc1cc(C(=O)OC)c(NC(=O)C2C3CCC(C3)C2C(=O)O)s1 (stereo not shown) [CBK057885]  31.6075
2. CCCOCC1CCN(C(=O)Nc2ccc(Oc3cccnc3)cc2)C1 (stereo not shown) [CBK306799]  51.4902
3. CNC(=O)Nc1cc(C(O)(C(F)(F)F)C(F)(F)F)ccc1C [CBK006970]  57.2656
4. CC(=O)c1ccc(-c2cc(C(=O)NCCc3cccnc3)cnc2-c2ccc(F)cc2)s1 [CBK036614]  59.6919
5. CCN(CCn1cccn1)c1nc2nonc2nc1NC1CCCC1 [CBK307589]  60.3207
6. CC(C)CSc1nc(O)cc(=O)n1Cc1ccccc1 [CBK291170]  63.3428
7. COc1ccc(C(C)C)cc1-c1nccnc1NC1CCC(N)CC1 (stereo not shown) [CBK036703]  64.532
8. CCOC(=O)C1CCCN(Cc2cccc(Cl)c2Cl)C1 (stereo not shown) [CBK307056]  65.4171
9. CN(C(=O)c1cc(O)nc2ccccc12)c1nccs1 [CBK297778]  68.9132
10. CN1C(=O)NC(c2ccc(Br)cc2)C2=C1CN(c1cccc(C(=O)O)c1)C2=O (stereo not shown) [CBK286729]  73.3606
11. COCCn1c(SCc2ccc([N+](=O)[O-])cc2)nnc1-c1ccccc1 [CBK265937]  73.7075
12. CCCCn1ncnc1-c1cnc2ccnn2c1C [CBK307305]  74.3411
13. CC(C)c1ccc(Cc2cnc(NC(=O)c3cc(Br)cs3)s2)cc1 [CBK300503]  75.1337
14. O=C(/C=C/c1ccc(Cl)cc1Cl)Nc1sc2c(c1C(=O)NCc1cccnc1)CCCC2 [CBK265497]  76.463
15. O=[N+]([O-])c1ccc(S(=O)(=O)NCCc2nc3ccccc3[nH]2)cc1 [CBK261796]  77.165
16. O=C1NC2(CCCC2)C(=O)N1Cc1cnn(-c2ccccc2)n1 [CBK305568]  77.7563
17. O=P(O)(CCc1ccccc1)CN1CCCCC1 [CBK262318]  78.2371
18. Cc1nc(-c2nnc(SCc3ccc(C(F)(F)F)cc3)o2)cs1 [CBK067715]  79.0994
19. Cn1ncc2c(NCc3cccc(Cn4cncn4)c3)ncnc21 [CBK304241]  79.8627
20. COc1ccccc1-c1nccnc1OCCC(C)C [CBK106818]  79.913
21. OCc1ccc(-n2ncc(-c3ccc(C(F)(F)F)cc3)n2)cc1 [CBK112696]  82.3687
22. CCOC(=O)N1N=C(c2ccc(F)cc2)CC1(O)C(F)(F)F (stereo not shown) [CBK027156]  83.0312
23. O=C(NCCCn1ccnc1)c1ncoc1-c1cccs1 [CBK282404]  84.0587
24. CCCC(=O)N1CCCCC1c1nn(C)cc1-c1cc(C)no1 (stereo not shown) [CBK283407]  84.6998
25. CN(C(=O)CCn1c(=O)oc2cc(Cl)ccc21)C1(C(N)=O)CCCC1 [CBK305493]  85.3344
26. COc1cc(CNC(=O)N2CCCC(CO)C2)cc(OC)c1OC (stereo not shown) [CBK156041]  85.8136
27. Cn1ccnc1CN1CCCC(CCC(=O)Nc2ccccc2F)C1 (stereo not shown) [CBK307462]  86.292
28. OCCN1CCN(c2ccc(-c3cc(C(F)(F)F)cc(C(F)(F)F)c3)cn2)CC1 [CBK036941]  86.8253
29. O=C1CCC(=O)N1CCOc1nccnc1N1CCN(CC2CCCCC2)CC1 [CBK084306]  87.1876
30. Cc1ccc(S(=O)(=O)CC(=O)N2CCC3(CCN(C(=O)Cc4c[nH]c5ccccc45)C3)C2)cc1 (stereo not shown) [CBK131443]  87.3156
31. O=C(O)c1cc(Cl)c2c(c1)[C@@H]1C=CC[C@@H]1[C@H](c1cccc(Br)c1)N2 [CBK077927]  87.5302
32. Cc1ccc(C(=O)N2CCC3(CC2)CC(=O)c2cc(Br)ccc2O3)cc1C [CBK162264]  87.9721
33. O=C(NCc1c(F)cccc1F)c1ccc2nc[nH]c2c1 [CBK153315]  89.8413
34. Cc1ccc(C(=O)NCC(O)c2ccc(F)cc2F)cn1 (stereo not shown) [CBK297751]  90.1174
35. O=C(O)CCC(=O)Nc1ccc(OC(F)F)cc1 [CBK264222]  90.546
36. C(=N\c1nc2ccccc2n1CCN1CCOCC1)/c1ccc2c(c1)OCO2 [CBK262270]  90.7297
37. CCc1ccc(C(=O)NCCCN2CCOCC2)cc1 [CBK268144]  91.0361
38. O=C(COc1ccc2c(c1)OCO2)Nc1ccccn1 [CBK288148]  91.4171
39. O=C(/C=C(O)/C(O)=C/C(=O)c1ccc(Cl)cc1)c1ccc(Cl)cc1 [CBK261428]  92.1743
40. C(=C\c1nccnc1OCCn1cccc1)/c1ccccc1 [CBK106884]  93.0342
41. COc1ccc(-c2cc3ncnc(Sc4nnnn4CC4CCCO4)c3s2)cc1 (stereo not shown) [CBK297157]  93.3739
42. COc1ccc(COc2nccnc2N2CCCC2)cc1OC [CBK116613]  93.6362
43. O=c1cc(Cn2ccnc2)c2cc3c(cc2o1)CCC3 [CBK287813]  93.9437
44. COc1cccc(C(=O)NCC(C)(C)SCc2ccc(F)cc2)c1 [CBK022322]  94.3859
45. COc1cccc2sc(N(Cc3cccnc3)C(=O)c3ccc(S(=O)(=O)N(C)C)cc3)nc12 [CBK294420]  95.6071
46. COc1cccc2c1cc(C(=O)NCCCc1ccccn1)n2C [CBK283283]  95.8073
47. O=C(NCc1cccc(C(F)(F)F)c1)N1CCCC(CO)C1 (stereo not shown) [CBK156033]  96.2425
48. Cc1ccccc1NC1=NC(=O)C(CC(C)C)O1 (stereo not shown) [CBK074902]  96.4906
49. CCn1cnc2c1CCC(CN/C(=N/C(=O)c1ccccc1)NC)C2 (stereo not shown) [CBK010036]  96.827
50. CC(C)(C)/N=C1/SCC(C)(/C=N\O)S1 (stereo not shown) [CBK009726]  97.3654
51. Cc1nnc(SCC(=O)Nn2c(-c3ccccc3)nc3ccccc3c2=O)[nH]1 [CBK268841]  97.3978
52. Cc1csc(C(Cc2cccs2)NC(=O)CN(C)C)n1 (stereo not shown) [CBK285124]  97.9456
53. O=C(NCCOc1ccccc1)N1CCCC(CO)C1 (stereo not shown) [CBK156058]  99.7394
54. O=C(NC(c1ccccc1)c1cccnc1)C1CCN(C(=O)NC2CCCCC2)CC1 (stereo not shown) [CBK060378]  99.7872
55. Cc1ccc2nc(/C(C#N)=C/c3ccc(-c4ccc(S(N)(=O)=O)cc4)o3)[nH]c2c1 [CBK266386]  99.8327
56. CC(=O)OC(Cn1c2ccccc2c2ccccc21)Cn1c2ccccc2c2ccccc21 [CBK262307]  100.969
57. CC(OC(=O)c1ccc2c(c1)C(=O)N(c1ccc([N+](=O)[O-])cc1)C2=O)C(=O)c1ccccc1 (stereo not shown) [CBK157061]  102.347
58. Fc1cccc(-c2cncc(NCCc3c[nH]c4ccccc34)n2)c1 [CBK065288]  103.263
59. O=C(Cn1c(C2CCOCC2)cc2cccnc21)NC1CCCC1 [CBK285157]  103.765
60. CCCCc1ccc(S(=O)(=O)n2ccc3c(N4CCNCC4)nccc32)cc1 [CBK045805C]  103.817
61. CC1CCCCN1C(=O)CN1C(=O)N2CCN=C2c2ccccc21 (stereo not shown) [CBK283921]  103.913
62. COCC(=O)N[C@H]1CC(C)(C)[C@@H]2C[C@@](C)(O)CC[C@]12CCC(=O)N1CCCC1 [CBK289043]  104.019
63. C=C(C)CN1CCN(C(C(=O)O)c2c[nH]c3ccc(OCc4ccccc4)cc23)CC1 (stereo not shown) [CBK286668]  105.467
64. COc1cccc(C2C(C(=O)c3ccc(C)o3)=C(O)C(=O)N2CCN2CCOCC2)c1 (stereo not shown) [CBK264899]  108.56
65. COc1cc(NC(=O)N2CCC3(CC2)CC(=O)c2ccc(C)cc2O3)cc(OC)c1 [CBK166521]  108.586
66. O=C(O)c1cccc(NS(=O)(=O)c2cccc(S(=O)(=O)c3ccc(Cl)c(Cl)c3)c2)c1 [CBK261259]  109.855
67. O=C(O)CCn1c(-c2ccc(F)cc2)cc2cccnc21 [CBK282583]  110.357
68. COc1ccc(S(=O)(=O)N(C)CC(=O)O)cc1 [CBK287086]  111.373
69. O=[N+]([O-])c1cccc(/C=C/C=N/c2ccc3c(c2)S(=O)(=O)c2cc(/N=C/C=C/c4cccc([N+](=O)[O-])c4)ccc2-3)c1 [CBK261244]  113.072
70. Cc1ccc(S(=O)(=O)NCC(=O)Nc2ccc(C)cc2C(=O)c2ccccc2)cc1 [CBK265199]  115.645
71. COC(=O)c1ccc(NS(=O)(=O)c2ccc(C)c(C(=O)O)c2)c(C)c1 [CBK296684]  117.161
72. Cc1cc(NC(=O)CSc2nc3c(c(C(F)(F)F)n2)CCc2ccccc2-3)n(-c2ccccc2)n1 [CBK266086]  117.708
73. COC(=O)c1ccccc1NC(=O)c1cc2nc(-c3cccs3)cc(C(F)(F)F)n2n1 [CBK262524]  118.114
74. O=C(O)CCCNc1ncnc2c1oc1ccccc12 [CBK287573]  122.877
75. Cc1ccc(C2=CCN(CC(=O)Nc3ccc(N(C)C)cc3)CC2)o1 [CBK283604]  127.585
76. Nc1ncc(-c2cccnc2)nc1-c1ccc(C(=O)N2CCOCC2)cc1 [CBK064059]  128.467
77. CC(C)Nc1cc(OCc2ccc(F)cc2)ncn1 [CBK115654]  128.574
78. Cc1nn(C)cc1CN1CCN(CC2(c3ccccc3)CC2)CC1 [CBK282721]  131.017
79. COC(=O)c1cc(-c2ccccc2)sc1NC(=O)CSc1ncnc2sc3c(c12)CCC3 [CBK265978]  138.129
